B1: Molecule D: made up of two polypeptides of SEQ ID NO:28; three hinge cysteines, N297S, glycosites on both linkers depleted (protein)
chain: QRVAAHITGTRGRSNTLSSPNSKNEKALGRKINSWESSRSGHSFLSNLHLRNGELVIHEKGFYYIYSQTYFRFQEEIKENTKNDKQMVQYIYKYTSYPDPILLMKSARNSCWSKDAEYGLYSIYQGGIFELKENDRIFVSVTNEHLIDMDHEASFFGAFLVGGSGSGSRVAAHITGTRGRSNTLSSPNSKNEKALGRKINSWESSRSGHSFLSNLHLRNGELVIHEKGFYYIYSQTYFRFQEEIKENTKNDKQMVQYIYKYTSYPDPILLMKSARNSCWSKDAEYGLYSIYQGGIFELKENDRIFVSVTNEHLIDMDHEASFFGAFLVGGSGSGSRVAAHITGTRGRSNTLSSPNSKNEKALGRKINSWESSRSGHSFLSNLHLRNGELVIHEKGFYYIYSQTYFRFQEEIKENTKNDKQMVQYIYKYTSYPDPILLMKSARNSCWSKDAEYGLYSIYQGGIFELKENDRIFVSVTNEHLIDMDHEASFFGAFLVGGPGSSSSSSSG[human IgG1 Fc with N297S (EU numbers) not written out]SSSSSAWSHPQFEK
modifications: homodimer
notes: three hinge cysteines, N297S, glycosites on both linkers depleted
B2: Molecule C: made up of two polypeptides of SEQ ID NO: 27; three hinge cysteines, N297S, glycosite at position 168 but not 337 (protein)
chain: QRVAAHITGTRGRSNTLSSPNSKNEKALGRKINSWESSRSGHSFLSNLHLRNGELVIHEKGFYYIYSQTYFRFQEEIKENTKNDKQMVQYIYKYTSYPDPILLMKSARNSCWSKDAEYGLYSIYQGGIFELKENDRIFVSVTNEHLIDMDHEASFFGAFLVGGSGSGNGSRVAAHITGTRGRSNTLSSPNSKNEKALGRKINSWESSRSGHSFLSNLHLRNGELVIHEKGFYYIYSQTYFRFQEEIKENTKNDKQMVQYIYKYTSYPDPILLMKSARNSCWSKDAEYGLYSIYQGGIFELKENDRIFVSVTNEHLIDMDHEASFFGAFLVGGSGSRVAAHITGTRGRSNTLSSPNSKNEKALGRKINSWESSRSGHSFLSNLHLRNGELVIHEKGFYYIYSQTYFRFQEEIKENTKNDKQMVQYIYKYTSYPDPILLMKSARNSCWSKDAEYGLYSIYQGGIFELKENDRIFVSVTNEHLIDMDHEASFFGAFLVGGPGSSSSSSSG[human IgG1 Fc with N297S (EU numbers) not written out]SSSSSAWSHPQFEK
modifications: homodimer

Assay: Half-life determination in NMRI mice
Format: in vivo
Conditions: for in vivo stability (as judged by compound half-life): NMRI mice, comparison between Molecules A-D; for Terminal Half-life 4 mg/kg i.v.: female NMRI mice, 4 mg/kg single intravenous bolus, serum, ELISA
Description: Molecules A-D are each made up of two polypeptides covalently linked by interchain disulfide bonds. The number of glycosites and hinge cysteines (resulting in interchain disulfide bonds between proteins) were tested in order to determine the effect that altering these characteristics has on the half-life of these compounds.
Female NMRI mice were treated with 1.2 mg/kg bw and/or with 4 mg/kg bw of the specified compounds as a single intravenous bolus injection. Whole blood was collected before application (predose), and up to 168 hours after test item administration. Serum was prepared and samples were stored at −80° C. until determination of serum concentrations. Pharmacokinetic parameters were calculated using the mean serum concentrations and the pharmacokinetic evaluation program PK Solutions Version 2.0 for non-compartmental pharmacokinetic data analysis (Summit Research Services, Montrose, Colo.). PK Solutions is an automated, Excel-based application, which computes pharmacokinetic parameters from concentration-time data obtained from analysis of e.g. biological samples following intravenous or extra-vascular routes of administration. PK Solutions calculates results without presuming any specific compartmental model.
Quantitation of the test items in serum was performed with an ELISA-assay detecting the individual TRAIL-receptor agonists shown in Table 7 independent of a Strep-Tag being part of the molecules.

Molecule	in vivo stability (as judged by compound half-life)	Terminal Half-life 4 mg/kg i.v. [h]
B1	reduced in vivo stability	8.81
B2	intermediate in vivo stability when compared to Molecules B and D	21.03
